From PubChem BioAssay AID686979 (National Center for Advancing Translational Sciences (NCATS), 2013)
About 50,000 (12%) of roughly 420,000 compounds were called active. Inconclusive means that the source gave no clear call. Such entries were picked first, then a sample of the others. Calls come from the whole dose curve; as a rule, active = well fitted inhibition curve with a large enough effect; inconclusive = small, poorly fitted or top-dose-only effect; inactive = flat fitted curve, though single readings scatter. Potencies of inconclusive entries are left out as doubtful fits.
% is set by controls: 0 for no effect and ±100 for the full control effect; potency is the fitted concentration of half-maximal effect; tags give direction and shape of the fitted curve.

Experiment: qHTS for Inhibitors of human tyrosyl-DNA phosphodiesterase 1 (TDP1): qHTS in cells in presence of CPT; note: nearly all actives have a fitted effect of over 55% in size
Conditions: chicken DT40 Tdp1-/-;hTDP1 cells + 20 nM CPT, ATP luminescence, 48 h; activity change, negative = growth inhibition: at 46.2 µM (top of the series)
Summary of the method: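 Chicken DT40 Tdp1-/- cells stably complemented with human TDP1 were seeded at 400 cells/well in medium containing 20 nM camptothecin, exposed to pin-transferred compounds, and grown at 37 °C for at least 48 hr. Viability was read as ATP luminescence.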
For `O=C(NCCc1ccccc1)Nc1cccc(Cl)c1`, the Potency was active: 16.4 µM. In the case of `COc1ccc2ccccc2c1CN1CCC2(CCC(CNC(=O)c3ccccc3)O2)CC1` (stereo not given), the Potency was inconclusive [inhibitor, single point]. With `COc1ccc(CNC(=O)C2CCN(C(=O)c3ccc(-c4ccccc4)cc3)CC2)cc1` the Potency was inconclusive [inhibitor, full curve, poor fit]. With `O=C(O)c1ccc(N2C(=O)CC(N3CCN(c4cccc(C(F)(F)F)c4)CC3)C2=O)cc1` (stereo not given) the “activity change, negative = growth inhibition” value was inactive: -3.58%. With `Cc1csc(NC(=O)CSc2nnc(-c3ccoc3C)n2Cc2ccco2)n1` the “activity change, negative = growth inhibition” value was inactive: -29.5%. With `Cc1cccc(C)c1NC(=S)NC(=O)c1cccc(Cl)c1` the Potency was inconclusive [inhibitor, single point]. For `O=C(COc1ccc(Oc2ccccc2)cc1)NC1CCS(=O)(=O)C1` (stereo not given), the Potency was inconclusive [inhibitor, partial curve]. For `COCCN(C(=O)COC(=O)Cc1c[nH]c2ccccc12)c1c(N)n(Cc2ccccc2)c(=O)[nH]c1=O`, the “activity change, negative = growth inhibition” value was inactive: 11.7%. For `O=C(NCC1COc2ccccc2O1)c1cc(S(=O)(=O)N2CCOCC2)ccc1F` (stereo not given), the “activity change, negative = growth inhibition” value was inactive: -18.7%. For `COCCCn1c(O)c(/C=C2\N=C(C#N)C(=Nc3ccc(C)cc3)O2)sc1=S`, the Potency was inconclusive [inhibitor, single point]. With `CCOC(=O)c1sc2ccccc2c1S(=O)(=O)N1CCN(c2ccccc2)CC1` the activity change, negative = growth inhibition was inconclusive: -35.2% [inhibitor]. In the case of `C#Cc1ccc([C@@H]2C=C(C(=O)N3CCN(Cc4ccc5c(c4)OCO5)CC3)O[C@H](OCC)[C@H]2CCCO)cc1`, the Potency was inconclusive [inhibitor, single point]. For `CCOc1ccc(NC(=O)CNS(=O)(=O)c2ccc(Br)s2)cc1`, the Potency was inconclusive [inhibitor, single point]. In the case of `CCOC(=O)c1cccc(N)c1`, the “activity change, negative = growth inhibition” value was inactive: -18.2%. With `O=c1c([N+](=O)[O-])cccn1Cc1ccc(F)cc1Cl` the Potency was active: 11.6 µM. In the case of `Cc1c(C(=O)NCc2cccc(C(F)(F)F)c2)sc(=O)n1Cc1ccc(F)cc1`, the Potency was inconclusive [inhibitor, single point]. For `CCOc1cc(NC(=S)NCCOC)c(OCC)cc1NC(=O)c1cccs1`, the “activity change, negative = growth inhibition” value was inactive: 14.8%. With `COC(=O)c1ccc(/C=C2\CCn3c2nc2cc(C(=O)O)ccc2c3=O)cc1` the Potency was inconclusive [inhibitor, single point]. With `O=C(c1cc(-c2ccccc2)on1)N1CCN(Cc2ccc3c(c2)OCO3)CC1` the “activity change, negative = growth inhibition” value was inactive: -25.4%. For `Cc1onc(-c2ccccc2Cl)c1C(=O)N(C)C1CCCCC1`, the Potency was active: 4.61 µM. For `COc1ccc(C(C(=O)Nc2ccc(C(C)C)cc2)N(Cc2ccco2)C(=O)CC2NC(=O)NC2=O)cc1` (stereo not given), the Potency was inconclusive [inhibitor, single point]. With `COc1ccc(C2=NN(c3ccccc3)C(c3cn(CCC(=O)O)nc3-c3ccccc3)C2)cc1` (stereo not given) the “activity change, negative = growth inhibition” value was inactive: 4.29%. With `CCOC(=O)c1cnc2c(C(F)(F)F)cccc2c1Nc1cccc(C(=O)OC)c1` the Potency was inconclusive [inhibitor, single point]. In the case of `O=c1c2ccccc2oc2cc(NCCCn3ccnc3)ccc12`, the Potency was inconclusive [inhibitor, single point]. In the case of `COc1ccc(/C=C/C(=O)OCC(=O)c2ccc(S(=O)(=O)N3CCCCC3)cc2)cc1OC`, the “activity change, negative = growth inhibition” value was inactive: 10.9%. For `COc1ccc(-c2noc(CSc3nnc(-c4ccc(Cl)cc4)n3C)n2)cc1OC`, the Potency was inconclusive [inhibitor, single point]. For `O=C(CN1CCN(C(=O)N2CCOCC2)CC1)Nc1cc(Cl)ccc1Cl`, the activity change, negative = growth inhibition was inconclusive: -34.5% [inhibitor]. For `COc1ccc(CCNC(=O)Cn2cc(S(=O)(=O)Cc3cccc(Cl)c3)c3ccccc32)cc1OC`, the Potency was inconclusive [inhibitor, single point]. In the case of `C#CCOCCOCCOCCNc1nc(N2CCN(C(=O)Cn3cc(CCO)nn3)CC2)nc(N2CCN(C(=O)Cn3cc(CC(C)O)nn3)CC2)n1` (stereo not given), the “activity change, negative = growth inhibition” value was inactive: -2.94%. With `CCOc1cc(S(=O)(=O)N2CCC(C(N)=O)CC2)ccc1F` the “activity change, negative = growth inhibition” value was inactive: 8.2%. With `CC(C)c1ccc(NC(=O)CSc2nc(=O)n(Cc3cccnc3)c3c2CCC3)cc1` the Potency was inconclusive [inhibitor, single point]. In the case of `CC(C)(C)c1ccc(C(=O)NNc2cc(Cl)cc(Cl)c2)cc1`, the Potency was inconclusive [inhibitor, single point]. In the case of `CCOC(=O)c1c(-c2ccc(OC)cc2)csc1NC(=O)CCN1CCOCC1`, the Potency was inconclusive [inhibitor, single point]. With `COc1ccccc1C(CNC(=O)c1ccc(NS(=O)(=O)c2ccc(F)c(C)c2)cc1)N1CCCC1` (stereo not given) the Potency was inconclusive [inhibitor, single point]. With `CCOC(=O)c1nnc(-c2ccc(C)cc2)nc1Oc1ccccc1Cl` the Potency was inconclusive [inhibitor, single point]. For `CCOc1ccc(CC(C(N)=O)C(N)=O)cc1`, the “activity change, negative = growth inhibition” value was inactive: -6.54%. In the case of `CCCCN(CCCC)CCNC(=O)c1cc(=O)[nH]c2ccc(S(=O)(=O)N3CCCCCC3)cc12`, the Potency was inconclusive [inhibitor, partial curve, poor fit]. For `Cc1ccc(S(=O)(=O)c2cc3c(=O)n4ccccc4nc3n(CCCN3CCOCC3)c2=N)cc1C`, the Potency was inconclusive [inhibitor, single point]. With `COc1ccc(-n2c(O)c(/C=N/Nc3nc(C)cc(C)n3)c3ccccc3c2=O)cc1OC` the Potency was inconclusive [inhibitor, single point]. In the case of `Cc1nn(C)c(C)c1NC(=O)CSc1nc(C2CC2)nc2c1cnn2-c1ccccc1`, the Potency was inconclusive [inhibitor, full curve, poor fit]. For `O=C1NC[C@@H](c2ccccc2)OC(=O)[C@H](Cc2ccc(F)cc2)CC/C=C/C[C@H]1CC(=O)N(CCO)Cc1ccccc1`, the Potency was active: 16.4 µM. In the case of `Cc1nnc(NC(=O)/C=C/c2ccco2)s1`, the “activity change, negative = growth inhibition” value was inactive: 2.69%. In the case of `Cc1ccc(C)c(C(=O)c2ccccc2NC(=O)c2ccccn2)c1`, the Potency was active: 16.4 µM. In the case of `CCOC(=O)CSc1nnc(Cc2ccc(OC)cc2)n1-c1ccccc1`, the “activity change, negative = growth inhibition” value was inactive: 14.6%. For `CCn1cc(C(=O)NCCc2ccccc2)c(=O)c2cc(S(=O)(=O)N3CCCC3)ccc21`, the Potency was inconclusive [inhibitor, single point]. In the case of `CCOc1cc(CNc2nn[nH]n2)ccc1OCC(=O)NC(C)(C)C`, the “activity change, negative = growth inhibition” value was inactive: -1.58%. With `CCOC(=O)N1CCN(C(=O)c2cc(COc3cccc(C(F)(F)F)c3)on2)CC1` the Potency was inconclusive [inhibitor, single point]. In the case of `O=c1[nH]c(NCCO)nc2c1C1(CCCCC1)Cc1ccccc1-2`, the Potency was inconclusive [inhibitor, single point]. In the case of `C[C@H](NC(=O)c1ccco1)C(=O)N1CCCC1`, the “activity change, negative = growth inhibition” value was inactive: -1.06%. In the case of `CCc1ccc(CNC(=O)C2CCN(C(=O)N3CC(CC)Oc4ccc(C)cc43)CC2)cc1` (stereo not given), the Potency was active: 20.6 µM. For `CCOc1nc(NCCN2CCOCC2)nc(Nc2ccc([N+](=O)[O-])cc2)n1`, the Potency was inconclusive [inhibitor, single point]. For `CCOC(=O)c1cc(-c2csc(-c3ccc(C(C)(C)C)cc3)n2)on1`, the “activity change, negative = growth inhibition” value was inactive: -29.9%. With `C/C(N)=C(/C#N)C(=O)CSc1nnc(COc2ccccc2Cl)o1` the Potency was inconclusive [inhibitor, partial curve]. With `Cc1nn(C(=O)c2ccc3c(c2)OCO3)c(N)c1-c1ccccc1` the “activity change, negative = growth inhibition” value was inactive: -9.24%. In the case of `CN1OC[C@@H]2CN(Cc3ccc4c(c3)OCO4)[C@H](c3ccc(N4CCCCC4)cc3)C[C@@H]21`, the Potency was inconclusive [inhibitor, single point]. For `O=C1C2CCCCN2C(=O)N1CCCCN1CCN(c2cccc(C(F)(F)F)c2)CC1` (stereo not given), the Potency was active: 10.3 µM. In the case of `CCS(=O)(=O)N1CCC(C(=O)Oc2ccc(C(=O)OC)cc2)CC1`, the “activity change, negative = growth inhibition” value was inactive: -16.9%. With `N#Cc1cc(N)c(Nc2ccccc2)cc1C#N` the Potency was inconclusive [inhibitor, partial curve, poor fit]. In the case of `COc1ccccc1Nc1c2c(nc3ccc(NC(=O)c4cccc(F)c4)cc13)CCCC2`, the Potency was active: 5.8 µM. In the case of `CC(C)(C)CC(C)(C)c1ccc(OCCO)cc1`, the Potency was active: 8.41 µM. In the case of `O=C(N=Nc1c(O)[nH]c2ccccc12)c1ccc2c(c1)OCO2`, the Potency was inconclusive [inhibitor, single point]. With `CCN(CCn1cccn1)C(=O)c1cc(COc2cc(C)ccc2C)on1` the Potency was active: 18.4 µM. In the case of `CC(Oc1cccc(Cl)c1)C(=O)NCc1ccc(S(N)(=O)=O)cc1` (stereo not given), the Potency was inconclusive [inhibitor, single point]. With `Cc1ccc(S(=O)(=O)N2C(=O)C(c3ccccc3)SC2=Nc2ccccc2)cc1` (stereo not given) the Potency was inconclusive [inhibitor, single point]. With `CC1CN(C)CCC1OC(=O)c1ccccc1` (stereo not given) the “activity change, negative = growth inhibition” value was inactive: 1.31%. In the case of `CCN(CC(=O)Nc1c(F)cccc1F)C(=O)CCCN1C(=O)c2ccccc2C1=O`, the “activity change, negative = growth inhibition” value was inactive: -5.9%. In the case of `Cc1ccc(NC(=O)CN(c2cc(C)cc(C)c2)S(=O)(=O)c2c(C)noc2C)nc1`, the Potency was inconclusive [inhibitor, single point]. For `CCc1ccccc1Nc1nn2c(=O)c3ccc(C(=O)NC4CCCCC4)cc3nc2s1`, the Potency was active: 10.3 µM. For `CCOc1ccc(NC(=O)CC2C(=O)N(CC)C(=S)N2CCN2CCOCC2)cc1` (stereo not given), the Potency was inconclusive [inhibitor, single point]. With `N#CCSc1nc2ccccc2c(=O)n1CC1CCCC1` the Potency was inconclusive [inhibitor, partial curve, poor fit].
